Source: the BET-seq Pho4 binding data (Le et al. 2018)
The list shows a part of the results. These are noisy estimates, calculated here from bound and input reads.

Each sequence was assayed against T1, Pho4 (S. cerevisiae) (UniProt P07270) (assay: relative binding free energy (BET-seq); higher = weaker binding). Conditions: reference: library average.
T1 sequence: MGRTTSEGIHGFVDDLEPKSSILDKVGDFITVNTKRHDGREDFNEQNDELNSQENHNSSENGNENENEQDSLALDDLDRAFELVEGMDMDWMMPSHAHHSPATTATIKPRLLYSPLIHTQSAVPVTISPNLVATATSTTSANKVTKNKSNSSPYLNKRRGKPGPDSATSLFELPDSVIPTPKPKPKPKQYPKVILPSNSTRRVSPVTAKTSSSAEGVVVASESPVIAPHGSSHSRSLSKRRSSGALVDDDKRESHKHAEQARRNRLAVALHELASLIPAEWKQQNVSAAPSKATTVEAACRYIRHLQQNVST

| Sequence | relative binding free energy [kcal/mol] |
| --- | --- |
| AGATTCACGTGATAGG | 0.33 |
| TCAGTCACGTGCTGTT | 0.04 |
| TGTCTCACGTGGTAAA | 0.13 |
| GACGGCACGTGGTGGC | -0.03 |
| TGGTTCACGTGGGTCA | 0.13 |
| CTAGTCACGTGTTTTT | 0.15 |
| GTTTGCACGTGGCGAG | -0.14 |
| GCACGCACGTGGGTTG | -0.1 |
| TTCTTCACGTGCTGGG | 0.41 |
| TGAGCCACGTGGGGTC | -0.21 |
| TCTAGCACGTGTAGTT | -0.01 |
| TGTCACACGTGGTGAG | 0.13 |
| AAATGCACGTGGTGGT | -0.2 |
| GTTGTCACGTGCTGGC | 0.09 |
| TAGTTCACGTGGATTA | 0.19 |
| ATTCCCACGTGGTTGG | -0.02 |
| ATGGACACGTGAAGGT | 0.26 |
| AGTGGCACGTGTACTG | -0.04 |
| TGAGTCACGTGGGGTG | -0.05 |
| AGGTTCACGTGTAGGA | 0.27 |
| TAAAACACGTGTTTGT | -0.15 |
| ATATTCACGTGTTAGA | 0.2 |
| TAGGACACGTGGGTCT | -0.2 |

| Sequence | relative binding free energy [kcal/mol] |
| --- | --- |
| TAAGGCACGTGGGTAG | -0.25 |
| CTTAACACGTGTGTTG | -0.03 |
| CATATCACGTGGAGGG | 0.11 |
| GGTATCACGTGGGCGC | 0 |
| TATAGCACGTGTATAT | -0.19 |
| AGGTACACGTGAGAGG | 0.25 |
| AGGAGCACGTGGGAAG | -0.2 |
| GTGAGCACGTGGTGAT | 0.02 |
| TTGTGCACGTGAGCAG | 0.12 |
| CGAGTCACGTGAGGAT | 0.28 |
| TCGAACACGTGTGGGA | 0.11 |
| CATTGCACGTGGGTGG | -0.15 |
| GGGTGCACGTGCAGTG | 0.08 |
| GTTGTCACGTGCCTGG | -0.06 |
| GTGCTCACGTGATTGT | 0.35 |
| CGAGGCACGTGTCGTT | -0.02 |
| TATATCACGTGGGAGC | 0.1 |
| GGGTGCACGTGAGCGT | 0.12 |
| TATGTCACGTGGGCTT | 0.03 |
| GGTGGCACGTGCTATG | -0.17 |
| AAGGTCACGTGATTTT | 0.33 |
| GTTGGCACGTGGTGTA | -0.06 |
| ATGGGCACGTGGCAGT | -0.25 |

| Sequence | relative binding free energy [kcal/mol] |
| --- | --- |
| GGATTCACGTGAGCAG | 0.53 |
| GTATGCACGTGATAAT | 0.1 |
| GCGTGCACGTGGAGTT | 0.05 |
| TGTTTCACGTGTAGTC | 0.32 |
| ATATTCACGTGAGGAG | 0.29 |
| TGATACACGTGGCATG | -0.12 |
| GGCGTCACGTGAAGTG | 0.26 |
| GTAAACACGTGAAGTA | 0.37 |
| ATTGTCACGTGTGGTT | 0.06 |
| AGAAGCACGTGTTTGT | -0.16 |
| GTTAGCACGTGAGTTC | 0.32 |
| TAAGTCACGTGGCATT | -0.02 |
| CGTAACACGTGTTAGG | -0.01 |
| CGGATCACGTGTAAGT | 0.18 |
| GGTTGCACGTGAGCGA | 0.15 |
| GGGTTCACGTGAGGCC | 0.52 |
| ATGTTCACGTGCAGTA | 0.24 |
| ATTGGCACGTGTCCGG | -0.11 |
| ATATGCACGTGTCTTA | -0.04 |
| ATTAACACGTGGGGAC | 0.01 |
| TGTCTCACGTGTAGTC | 0.23 |
| GAAATCACGTGTTAGT | 0.21 |
| ACTTTCACGTGGAGGT | 0.17 |

| Sequence | relative binding free energy [kcal/mol] |
| --- | --- |
| GGTTGCACGTGCGGCG | 0.09 |
| GCGTGCACGTGAGGAT | 0.33 |
| CGGGGCACGTGTCTAG | -0.16 |
| TATTTCACGTGCGTCT | 0.25 |
| CAAAGCACGTGTTTGT | -0.05 |
| TTTAGCACGTGGGGTC | -0.16 |
| TGTATCACGTGCGGTA | 0.05 |
| GTAGTCACGTGTATGC | 0.1 |
| GCGAGCACGTGTAGGT | -0.02 |
| TTTGACACGTGTCTTT | 0.01 |
| GGTCTCACGTGTTCTT | 0.31 |
| ATGAGCACGTGATAGT | 0.1 |
| GTAAACACGTGATTGT | 0.09 |
| TCAGACACGTGGTGGA | 0.09 |
| TTGGCCACGTGGGGCT | -0.24 |
| GGCCGCACGTGGGCAG | -0.13 |
| AGGGGCACGTGGTAAC | -0.16 |
| GAAGGCACGTGTTTGA | -0.16 |
| GCAGGCACGTGTTAGG | -0.03 |
| ATTGCCACGTGGGGTT | -0.19 |
| GGTGTCACGTGTGTGG | 0.17 |
| TTAATCACGTGCGTCA | 0.22 |
| GTTTTCACGTGTTATC | 0.23 |

| Sequence | relative binding free energy [kcal/mol] |
| --- | --- |
| TAGGACACGTGTTGGT | 0 |
| TAGTACACGTGAGGGT | 0.24 |
| TGGCGCACGTGAAAGT | 0.1 |
| TTGTTCACGTGGAAGC | 0.31 |
| ATATGCACGTGGTCGC | -0.02 |
| AAGATCACGTGTTGGT | 0.05 |
| ATCTTCACGTGGATGG | 0.4 |
| TGATGCACGTGTACTG | -0.01 |
| GGGTACACGTGGGGAG | 0.03 |
| TGGTTCACGTGCGTCT | 0.23 |
| TGGTTCACGTGAGATC | 0.4 |
| TTGATCACGTGGAGTG | 0.09 |
| TGTGGCACGTGGGGTT | -0.14 |
| TTACACACGTGCTGGG | -0.02 |
| AGGGCCACGTGGTGTT | -0.19 |
| TGTTACACGTGCGGAA | 0.19 |
| CGGTTCACGTGTATTA | 0.38 |
| ATCCGCACGTGAGGGG | 0.21 |
| AAGTTCACGTGCGTGG | 0.1 |
| GGGGACACGTGACGTG | 0.19 |
| GTTTTCACGTGGTCTC | 0.32 |
| AAGCACACGTGGTTAG | 0.22 |
| TTGCTCACGTGTGTTC | 0.34 |
